{"source": "PubChem BioAssay AID602310", "about": "(National Center for Advancing Translational Sciences (NCATS), 2012)", "note": "Hit rate of the full screen: of about 410,000 compounds, about 310 (0.076%) were called active. Inconclusive means that the source gave no clear call. Such entries were picked first, then a sample of the others. Calls follow the shape of the dose curve; as a rule, active = well fitted curve in the direction sought with a large enough effect; inconclusive = small, poorly fitted or top-dose-only effect; inactive = flat fitted curve, though single readings scatter. Where the call is inconclusive, the potency comes from a doubtful curve fit. Potency is read from the fitted curve at half-maximal effect; tags tell the direction and shape of the fitted curve."}
{"biological_target": "DNA dC->dU-editing enzyme APOBEC-3G (Homo sapiens) (UniProt Q9HC16)", "sequence (Q9HC16 whole entry, looked up)": "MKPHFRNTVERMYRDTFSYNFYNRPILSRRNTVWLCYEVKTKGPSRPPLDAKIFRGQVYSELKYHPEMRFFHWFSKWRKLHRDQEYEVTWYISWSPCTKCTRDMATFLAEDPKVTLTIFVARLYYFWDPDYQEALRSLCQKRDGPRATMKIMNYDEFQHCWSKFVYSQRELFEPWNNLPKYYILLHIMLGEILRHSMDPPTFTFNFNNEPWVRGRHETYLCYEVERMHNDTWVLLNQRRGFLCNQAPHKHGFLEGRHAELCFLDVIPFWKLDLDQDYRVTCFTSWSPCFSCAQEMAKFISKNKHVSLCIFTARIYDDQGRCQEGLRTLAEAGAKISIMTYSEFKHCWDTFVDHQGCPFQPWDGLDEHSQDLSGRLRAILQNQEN", "test": "qHTS for Inhibitors of Vif-A3G Interactions: qHTS; also: nearly all actives have a fitted effect of over 60% in size", "settings": "HeLa A3G-eYFP + Vif (tagged APOBEC3G with the HIV-1 protein that degrades it), YFP fluorescence, overnight; series mostly up to 46.1 µM", "procedure,_shortened": "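HeLa cells stably expressing Vif and C-terminally eYFP-tagged A3G, seeded overnight at 37 deg C, then exposed to compound by pintool overnight at 37 deg C. Rise in yellow fluorescence (Ex 488/Em 500-530, Acumen) marks blocked Vif-driven A3G degradation.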"}
{"compound": "Cc1cc(C)c2cc3c(N)c(C(=O)Nc4c(C)[nH]c(=O)[nH]c4=O)sc3nc2c1", "Potency": "inconclusive: 31.6 µM [inhibitor, single point]"}
{"compound": "Cn1c(=O)[nH]c(=O)c2c1nc(CN1CCN(c3cccc(Cl)c3)CC1)n2CCc1ccccc1", "Potency": "inconclusive: 22.4 µM [inhibitor, single point]"}
{"compound": "CCc1ccc(NC(=O)/C(C#N)=C/c2cc3ccc(C)cc3nc2N2CCOCC2)cc1", "Potency": "inactive"}
{"compound": "COc1ccc(C(=O)Nc2ccc(Cl)c(Cl)c2)c(OC)n1", "Potency": "inactive"}
{"compound": "O=C(N/N=C/c1c[nH]c2ccccc12)c1cc(-c2cccc3ccccc23)n[nH]1", "Potency": "inconclusive: 6.31 µM [inhibitor, full curve]"}
{"compound": "O=C1C=C(Nc2ccc(Cl)cc2Cl)CC(c2ccco2)C1", "note": "(centres undefined)", "Potency": "inconclusive: 2.24 µM [inhibitor, full curve, poor fit]"}
{"compound": "CC(C)c1ccc(NC(=O)C2CCCN(S(=O)(=O)c3cccnc3)C2)cc1", "note": "(centres undefined)", "Potency": "inconclusive: 35.5 µM [inhibitor, single point]"}
{"compound": "Cc1ccc([C@H]2C[C@@H](n3cc(-c4ccc(F)cc4)nn3)[C@H](O)CN2Cc2cccs2)cc1", "Potency": "inactive"}
{"compound": "Cc1ccc(OCCNC(=O)c2cccc(S(=O)(=O)NCc3ccccc3)c2)cc1", "Potency": "inconclusive: 2 µM [inhibitor, full curve, poor fit]"}
{"compound": "COc1ccccc1N=C(C)C1=C(O)CC(c2ccccc2)CC1=O", "note": "(centres undefined)", "Potency": "inconclusive: 1.58 µM [inhibitor, full curve]"}
{"compound": "N#Cc1c(C(F)(F)F)cc(-c2cccs2)nc1SCC(=O)Nc1ccc(Cl)cc1", "Potency": "active: 10 µM"}
{"compound": "COc1ccc(C(=O)c2sc3nc(C)cc(-c4cccs4)c3c2N)cc1", "Potency": "active: 12.6 µM"}
{"compound": "COCCNC(=O)C1(C)Cc2c(-c3cccc(NC(C)=O)c3)ccnc2O1", "note": "(centres undefined)", "Potency": "inconclusive: 17.8 µM [inhibitor, single point]"}
{"compound": "COc1ccc(/C=C/c2nccc3c2[nH]c2ccccc23)cc1", "Potency": "inconclusive: 12.6 µM [inhibitor, single point]"}
{"compound": "Cc1ccc2c(c1)N(CC(=O)N1CCCc3ccccc31)C(=O)CO2", "Potency": "inactive"}
{"compound": "CCOC(=O)C1=C(Cc2ccc(Cl)cc2)C(=O)c2ccccc2C1=O", "Potency": "inconclusive: 35.5 µM [inhibitor, single point]"}
{"compound": "O=C(N/N=C\\c1ccccc1)c1cccc(C(=O)N/N=C\\c2ccccc2)n1", "Potency": "inactive"}
{"compound": "COc1ccc(NS(=O)(=O)c2cccc(C(=O)N(C)Cc3ccc(SC)cc3)c2)cc1", "Potency": "inconclusive: 35.5 µM [inhibitor, partial curve, poor fit]"}
{"compound": "COc1cccc(-c2cnc3c(NC(C)=O)cc(-c4ccc(C(=O)NC5CC5)cc4)cn23)c1", "Potency": "inconclusive: 22.4 µM [inhibitor, single point]"}
{"compound": "COc1ccccc1N1CCN(c2ccc3cc(S(=O)(=O)N4CCCCC4)ccc3n2)CC1", "Potency": "inactive"}
{"compound": "COc1cc(OC)c(C2=NOC(C(=O)NCc3cccs3)C2)cc1Cl", "note": "(centres undefined)", "Potency": "inconclusive: 2.82 µM [inhibitor, full curve, poor fit]"}
{"compound": "Cc1nnsc1S(=O)c1ccc(Cl)c(Cl)c1", "note": "(centres undefined)", "Potency": "inconclusive: 35.5 µM [inhibitor, single point]"}
{"compound": "CCc1c(C(=O)N2CCCN(C)CC2)csc1C", "Potency": "inactive"}
{"compound": "O=[N+]([O-])c1cc([N+](=O)[O-])c2oc(-c3ccccc3)c(Br)c2c1O", "Potency": "inactive"}
{"compound": "CCOc1ccc(CN2C(=O)c3ccccc3Sc3ccc(C(=O)N4CCN(C)CC4)cc32)cc1", "Potency": "inconclusive: 22.4 µM [inhibitor, single point]"}
{"compound": "Cc1nn(C)cc1/C=C/C(=O)c1ccccc1", "Potency": "inconclusive: 15.8 µM [inhibitor, single point]"}
{"compound": "CCOc1nnc(C)c2c(C)n(-c3cccc(Cl)c3)nc12", "Potency": "inconclusive: 35.5 µM [inhibitor, single point]"}
{"compound": "CC1=CC(=C(C#N)c2nc3ccccc3s2)C=C(C)N1CC1CCCO1", "note": "(centres undefined)", "Potency": "inconclusive: 35.5 µM [inhibitor, single point]"}
{"compound": "CCOC(=O)c1cccc(NC(=O)c2c(NCc3ccccc3)[nH]c(=O)[nH]c2=O)c1", "Potency": "inconclusive: 11.2 µM [inhibitor, partial curve]"}
{"compound": "COc1ccc(OC)c(NC(=O)CSC2=Nc3ccccc3C3=NC(CC(=O)NCc4ccco4)C(=O)N23)c1", "note": "(centres undefined)", "Potency": "inactive"}
{"compound": "COC(=O)c1ccccc1NC1=C/C(=N\\S(=O)(=O)c2cccs2)c2ccccc2C1=O", "Potency": "inactive"}
{"compound": "Nc1ncnc2c1ncn2[C@@H]1O[C@H](CNCc2ccc(OCc3ccccc3)cc2)[C@@H](O)[C@H]1O", "Potency": "active: 22.4 µM"}
{"compound": "O=C1C=CC(=O)N1CCCCCCCCCCN1C(=O)C=CC1=O", "Potency": "inactive"}
{"compound": "Cc1ccccc1NCC(=O)N/N=C\\c1ccc2c(c1)OCO2", "Potency": "inactive"}
{"compound": "Cn1nnnc1Sc1ncnc2scc(-c3ccc(-c4ccccc4)cc3)c12", "Potency": "inconclusive: 3.55 µM [inhibitor, full curve, poor fit]"}
{"compound": "COc1cc(N(C)C)ccc1/C=C/c1ccnc2ccccc12", "Potency": "inconclusive: 3.16 µM [inhibitor, single point]"}
{"compound": "Brc1ccc2c(c1)C(C1=NCCN1)c1ccccc1CS2", "note": "(centres undefined)", "Potency": "inconclusive: 2 µM [inhibitor, full curve, poor fit]"}
{"compound": "CCOc1cccc2cc(-c3nc4sc(C(=O)Nc5ccc(C)cc5)c(C)c4c(=O)[nH]3)c(=O)oc12", "Potency": "inconclusive: 3.98 µM [inhibitor, single point]"}
{"compound": "CC(=O)OCc1cnc(C)c2oc(=O)c(C(=O)Nc3ccc(F)cc3C)cc12", "Potency": "inactive"}
{"compound": "O=C(NC(NNc1ccc([N+](=O)[O-])cc1)(C(F)(F)F)C(F)(F)F)c1ccccc1Cl", "Potency": "inactive"}
{"compound": "Cc1ccccc1N1CCN(CCC(=O)Nc2ccc(F)cc2)CC1", "Potency": "inconclusive: 35.5 µM [inhibitor, single point]"}
{"compound": "COc1ccc2nc(C)cc(NCc3ccc(F)cc3)c2c1", "Potency": "inconclusive: 8.91 µM [inhibitor, partial curve, poor fit]"}
{"compound": "COc1ccc(/C=C2/CCCC(CN(C)C)C2=O)cc1", "note": "(centres undefined)", "Potency": "inconclusive: 3.55 µM [inhibitor, full curve]"}
{"compound": "CCOn1c(=O)c(C)[n+]([O-])c2ccccc21", "Potency": "inconclusive: 25.1 µM [inhibitor, single point]"}
{"compound": "COc1ccc(C(=O)CSc2nn3c(=O)c(C(C)(C)C)nnc3s2)cc1", "Potency": "inconclusive: 20 µM [inhibitor, single point]"}
{"compound": "COc1cc(C2c3c(n[nH]c3C)C(=O)N2c2ccc(Br)cc2)ccc1O", "note": "(centres undefined)", "Potency": "inactive"}
{"compound": "Oc1ccc(NCc2ccc(OCc3ccccc3Cl)cc2)cc1", "Potency": "inconclusive: 25.1 µM [inhibitor, single point]"}
{"compound": "COc1cc(C(=O)Nc2ccc3c(c2)ncn3C)cc(OC)c1OC", "Potency": "inconclusive: 12.6 µM [inhibitor, partial curve, poor fit]"}
{"compound": "CCCC(=O)OCCNc1cc(Sc2nc3ccccc3[nH]2)c2nonc2c1[N+](=O)[O-]", "Potency": "inconclusive: 35.5 µM [inhibitor, single point]"}
{"compound": "CC1CCN(C(=O)c2ccc(S(=O)(=O)Cc3ccccc3F)c([N+](=O)[O-])c2)CC1", "Potency": "inconclusive: 11.2 µM [inhibitor, partial curve, poor fit]"}
{"compound": "CCCCCCC1CCC(C(=O)NC(CCSC)C(=O)NC(C(=O)OC)C(C)C)CC1", "note": "(centres undefined)", "Potency": "inactive"}
{"compound": "CCCOc1ccc(NC(N)=O)cc1OCCC", "Potency": "inactive"}
{"compound": "CC(=O)Nc1ccc(-c2nnc(SCC(=O)c3ccc([N+](=O)[O-])cc3)o2)cc1", "Potency": "inactive"}
{"compound": "COc1cc(N2CCCC2)c(OC)cc1/C=C(/C#N)c1cccc(F)c1", "Potency": "active: 5.01 µM"}
{"compound": "CCN(C)c1ccc(/C=C/c2ccnc3ccccc23)cc1", "Potency": "inconclusive: 15.8 µM [inhibitor, partial curve, poor fit]"}
{"compound": "CCOc1ccc(S(=O)(=O)NCc2ccccn2)cc1NC(=O)c1ccccc1", "Potency": "inconclusive: 2.82 µM [inhibitor, full curve]"}
{"compound": "COc1ccc(NS(=O)(=O)c2cc(NC(=O)C3CC3)ccc2N2CCCCC2)cc1", "Potency": "inconclusive: 35.5 µM [inhibitor, single point]"}
{"compound": "Cc1cn(C)c(CC(=O)N2CCN(c3ccccc3F)CC2)c1C(=O)O", "Potency": "inactive"}
{"compound": "C=CCc1cccc(/C=N/NC(=O)c2ccc3nc[nH]c3c2)c1O", "Potency": "inconclusive: 22.4 µM [inhibitor, single point]"}
{"compound": "CCOc1ccc(Nc2nc(C)c(NC(=O)c3cccc(OC)c3)c(Nc3ccc(OCC)cc3)n2)cc1", "Potency": "inactive"}
{"compound": "Cc1cc(N2CCN(S(=O)(=O)c3ccc4c(c3)OCCO4)CC2)n2ncnc2n1", "Potency": "inactive"}
{"compound": "Cn1c(=O)[nH]c(=O)c2c1nc1n2CCN1c1ccccc1", "Potency": "inactive"}
{"compound": "CCOC(=O)C1=C(C)N=C2c3ccccc3C(=O)C2C1c1ccc(Cl)cc1", "note": "(centres undefined)", "Potency": "inactive"}
{"compound": "COc1cc(NC(=O)C(C)C)ccc1NC(=O)c1cc2ccccc2o1", "Potency": "inactive"}
{"compound": "Oc1ccc(C(=S)N2CCN(c3cccc(Cl)c3)CC2)cc1", "Potency": "inconclusive: 31.6 µM [inhibitor, partial curve, poor fit]"}
{"compound": "O=C(NC1=C(Nc2ccc(F)cc2)C(=O)c2ccccc2C1=O)c1ccc(Cl)cc1", "Potency": "inconclusive: 20 µM [inhibitor, single point]"}
{"compound": "CN(Cc1cnn(Cc2ccccc2)c1)C(=O)c1cccc(S(=O)(=O)N2CCOCC2)c1", "Potency": "inconclusive: 14.1 µM [inhibitor, partial curve, poor fit]"}
{"compound": "O=S(=O)(c1ccc(OCC2CO2)cc1)c1ccc(OCC2CO2)cc1", "note": "(centres undefined)", "Potency": "inconclusive: 35.5 µM [inhibitor, single point]"}
{"compound": "Fc1ccc2c(c1)C(c1cccnc1)=NNC(c1cccs1)=N2", "Potency": "inconclusive: 11.2 µM [inhibitor, single point]"}
